{
  "source": "paper PMC6451091",
  "note": "The list shows a part of the results. The protein was read in a cell extract, so binding may be indirect.",
  "data": [
    {"target": "T1, FLI1 (endogenous, THP-1 nuclear extract) (UniProt Q01543)", "T1 sequence": "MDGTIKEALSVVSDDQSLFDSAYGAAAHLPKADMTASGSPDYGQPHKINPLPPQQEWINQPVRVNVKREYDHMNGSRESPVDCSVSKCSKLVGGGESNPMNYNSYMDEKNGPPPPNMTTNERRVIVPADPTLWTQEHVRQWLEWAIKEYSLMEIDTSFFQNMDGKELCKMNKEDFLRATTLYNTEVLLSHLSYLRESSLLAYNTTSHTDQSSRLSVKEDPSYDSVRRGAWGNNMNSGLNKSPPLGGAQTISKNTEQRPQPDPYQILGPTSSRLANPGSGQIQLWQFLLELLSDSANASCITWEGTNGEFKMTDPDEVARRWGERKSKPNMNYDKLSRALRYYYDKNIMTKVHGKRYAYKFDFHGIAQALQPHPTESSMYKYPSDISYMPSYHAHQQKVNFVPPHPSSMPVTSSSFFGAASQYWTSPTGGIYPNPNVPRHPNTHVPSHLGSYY", "assay": "nuclear extract protein-binding microarray (nextPBM)", "details": "20 mM HEPES pH 7.9, 100 mM NaCl, 1 mM DTT, 0.2 mg/mL BSA, 0.02% Triton X-100, 2% milk, 0.4 mg/mL salmon testes DNA; 1 h; temperature not stated; high values mean tight binding; double strand, one strand shown; sequences stand for … in GCCTAGCAC…GTGCTAGGTCTTGATTCGCTTGACGCTGCTG", "units": {"binding signal": "z-score"}, "values": [
      {"sequence": "TCATAGAGGAACTGCGTACA", "binding signal": 0.797},
      {"sequence": "AAAGAGAGGAAGTACAGTTT", "binding signal": 2.88},
      {"sequence": "AAATGGAGGAAGTGGCTATA", "binding signal": 2.59},
      {"sequence": "AGATACAGGAAGTGAAAAAG", "binding signal": 4.53},
      {"sequence": "CAAGAGGGGAAGTGACAAGC", "binding signal": 2.11},
      {"sequence": "CAAATAGGGAAGTGGACTCA", "binding signal": 2.43},
      {"sequence": "AGAAGAGGGAAGTGGAGGTT", "binding signal": 1.81},
      {"sequence": "AAAAAGAGGAAGAGGAGGAG", "binding signal": 1.67},
      {"sequence": "GAAAAGGGGAACTGGGTGCC", "binding signal": 1.9},
      {"sequence": "GGGGTGAGGAAGTGCCTGGG", "binding signal": 1.88},
      {"sequence": "AGAGAAAGGAAGTGAAATTC", "binding signal": 2.39},
      {"sequence": "ATTTAGAGGAAGTGGGTGGG", "binding signal": 2.88},
      {"sequence": "GAAAACAGGGAGTCCCATAG", "binding signal": 0.127},
      {"sequence": "GAAGTGAGGAAGTGTGGCTG", "binding signal": 1.73},
      {"sequence": "CAGGGAAGGAAGTGGTTTGA", "binding signal": 2.2},
      {"sequence": "GAAAAGAGGAACCGTATGGT", "binding signal": 1.4},
      {"sequence": "CCAAAGGGGAAGTTAGGGCT", "binding signal": 2.63},
      {"sequence": "CAAAAGGGGAAGTGAGAAAT", "binding signal": 3.83},
      {"sequence": "TGAAACGGGAAGTGTCAGCA", "binding signal": 2.72},
      {"sequence": "ACAGGAGGGAAGTGGCCTCA", "binding signal": 1.2},
      {"sequence": "AAGAACAGGAAGTGGGACAT", "binding signal": 4.9},
      {"sequence": "TTACACAGGAAGTGCTGGCA", "binding signal": 4.35},
      {"sequence": "TGAAAGACGAAGTGCAACCA", "binding signal": -0.0203},
      {"sequence": "CAGATGAGGAACTGATGCGG", "binding signal": 1.2},
      {"sequence": "TAATTGAGGAACTGCAAATG", "binding signal": 1.21},
      {"sequence": "AAGAAAGAGAACTACTGTGA", "binding signal": -0.212},
      {"sequence": "GAAAACAGGAAGGCCCATAG", "binding signal": 2.16},
      {"sequence": "TGAAAGAGGAAGTCAAATTG", "binding signal": 4.06},
      {"sequence": "GAAAGGAGGAAGTGGAGGGT", "binding signal": 3.14},
      {"sequence": "ACAAAAAGAAACTGTGCCCC", "binding signal": -0.526},
      {"sequence": "AATATGAGGAAGTGCTCTAG", "binding signal": 2.92},
      {"sequence": "GGCAAGAGGAAGTGTTGCTG", "binding signal": 2.81},
      {"sequence": "AGAAGGAGGAAGTGGGGAGC", "binding signal": 2.78},
      {"sequence": "CTGGAGAGGAACTGAGTGCC", "binding signal": 0.359},
      {"sequence": "AAAAAGAGGAACTTGGGAAA", "binding signal": 3.35},
      {"sequence": "TAGAAGAGGAAGAGAGAAGT", "binding signal": 1.18},
      {"sequence": "GAGAAGAGGAAGTCCCCATT", "binding signal": 2.85},
      {"sequence": "ACAAAAAGGAACTGTGCCCT", "binding signal": 1.25},
      {"sequence": "GAAATGGGGAAGTGCCAACT", "binding signal": 3.19},
      {"sequence": "GGGGAAGGGAAGTGGACAGT", "binding signal": 1.85}
    ]}
  ]
}
